In all, about 310,000 compounds went through this assay and about 14,000 (4.5%) showed an effect of 50% or more. Effects have a minus sign here. Some of the results follow.
Target: human ether-à-go-go-related gene (hERG) potassium channel (human, UniProt Q12809)
Experiment: primary screen, population patch clamp on CHO cells stably expressing hERG
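Note: peak tail current of the secondary pulse compared with the same well before compound.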

human ether-à-go-go-related gene (hERG) potassium channel, sequence (Q12809 whole entry, looked up): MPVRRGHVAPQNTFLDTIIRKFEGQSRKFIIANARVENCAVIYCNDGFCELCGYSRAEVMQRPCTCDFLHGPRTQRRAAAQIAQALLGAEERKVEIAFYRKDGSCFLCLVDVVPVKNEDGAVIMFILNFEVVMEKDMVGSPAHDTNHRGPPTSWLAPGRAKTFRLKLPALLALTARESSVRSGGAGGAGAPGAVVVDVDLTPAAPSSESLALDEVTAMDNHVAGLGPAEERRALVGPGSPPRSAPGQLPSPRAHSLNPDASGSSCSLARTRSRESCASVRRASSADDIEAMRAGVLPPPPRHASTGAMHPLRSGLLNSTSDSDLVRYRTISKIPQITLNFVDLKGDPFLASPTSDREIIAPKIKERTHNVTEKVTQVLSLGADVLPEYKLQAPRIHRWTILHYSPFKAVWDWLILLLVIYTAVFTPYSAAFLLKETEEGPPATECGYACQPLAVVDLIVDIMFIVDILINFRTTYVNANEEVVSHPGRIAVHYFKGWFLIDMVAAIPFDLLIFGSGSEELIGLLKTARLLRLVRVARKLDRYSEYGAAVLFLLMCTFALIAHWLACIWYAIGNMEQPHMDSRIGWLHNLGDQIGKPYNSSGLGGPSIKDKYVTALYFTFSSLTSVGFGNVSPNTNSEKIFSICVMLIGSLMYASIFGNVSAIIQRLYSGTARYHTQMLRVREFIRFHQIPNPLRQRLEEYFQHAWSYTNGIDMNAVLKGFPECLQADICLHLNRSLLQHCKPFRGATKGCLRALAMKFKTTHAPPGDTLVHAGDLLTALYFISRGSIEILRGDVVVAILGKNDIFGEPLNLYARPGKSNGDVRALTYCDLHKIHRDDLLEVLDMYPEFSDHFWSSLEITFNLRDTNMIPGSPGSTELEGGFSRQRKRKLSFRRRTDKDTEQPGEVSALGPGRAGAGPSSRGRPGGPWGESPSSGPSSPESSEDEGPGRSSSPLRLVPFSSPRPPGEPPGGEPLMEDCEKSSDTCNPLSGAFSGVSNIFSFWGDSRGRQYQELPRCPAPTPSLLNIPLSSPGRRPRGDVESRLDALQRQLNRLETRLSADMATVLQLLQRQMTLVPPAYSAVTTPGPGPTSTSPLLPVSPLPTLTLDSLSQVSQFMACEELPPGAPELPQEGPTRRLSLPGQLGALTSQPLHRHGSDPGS

In order of rising “hERG current change (%, negative = inhibition) at 10uM” value:
1. COc1ccc(NC(=O)CSCC(=O)N(C)CC(=O)Nc2ccc(Cl)c(C(F)(F)F)c2)cc1  -68.6%
2. Cc1ccc(-c2noc(CCC(=O)NCC3CCN(Cc4cccc(C)c4)CC3)n2)cc1  -63.8%
3. Cc1ccc(NS(=O)(=O)c2cc(-c3cc(C)no3)ccc2C(C)C)nc1  -49%
4. CCOC(=O)C1CCN(C2=C(NS(=O)(=O)c3ccc(Cl)cc3)C(=O)c3ccccc3C2=O)CC1  -44.5%
5. COc1cc(OC)cc(C(=O)N2CCN(C(=O)c3ccc(-c4ccccc4)cc3)CC2)c1  -43.1%
6. CC(=O)c1ccc(-n2nnnc2SCC(=O)N2CCN(C(=O)c3ccco3)CC2)cc1  -42.1%
7. CN1CCC(OC(=O)c2ccc(Br)cc2)CC1.Cl  -41.9%
8. Cc1ccc(NC(=O)CN(C)C(=O)c2ccc(Sc3nncn3C)c([N+](=O)[O-])c2)cc1  -40.3%
9. Br.Cc1ccccc1Cn1c(=N)n(CC(=O)c2ccc([N+](=O)[O-])cc2)c2ccccc21  -32.6%
10. O=C(C1CC1)N1CCN(Cc2ccccc2)CC1  -32.1%
11. Cc1ccc(NC2c3ncccc3C(=O)N2Cc2ccc(F)cc2)cc1 (centres unmarked)  -30.9%
12. COc1cc(NC(=O)COC(=O)CC(C)(C)C)c(C)cc1[N+](=O)[O-]  -28.4%
13. Cc1ccc(NC(=O)CN(C)C(=O)COC(=O)CCS(=O)(=O)c2ccc(C)cc2)cc1  -25.3%
14. CCN(CC)S(=O)(=O)c1cc(NC(=O)CN2CCN(c3ccccn3)CC2)ccc1C  -24.9%
15. O=C(NCCCN1CCOCC1)c1ccc(NS(=O)(=O)c2cccc([N+](=O)[O-])c2)cc1  -24.6%
16. COc1ccc(OC)c(NC(=O)CSc2nc(=O)n(CCN3CCOCC3)c3c2CCC3)c1  -24%
17. COc1cc(NC(=O)CSc2nc(=O)n(CCN3CCOCC3)c3c2CCCC3)cc(OC)c1  -23.3%
18. Cc1ncoc1C(=O)NC1CC(C)(C)Cc2c1cnn2-c1ccccc1 (centres unmarked)  -20.5%
19. Cc1cc(C)n(CCC(=O)N/N=C/c2ccc(Br)c([N+](=O)[O-])c2)n1  -18.6%
20. COc1cc(NC(=O)C(C)N2CCN(C(=O)C3CC3)CC2)cc(OC)c1 (centres unmarked)  -16.1%
21. Cc1ccc2c(c1)c1c(n2CCc2ccc(C)nc2)CCN(C)C1  -15.8%
22. Cc1ccc[n+](C(C)C(=O)Nc2ccc(C)c([N+](=O)[O-])c2)c1.[Br-] (centres unmarked)  -11.4%
23. COc1cc2ccccc2cc1C(=O)N(CCN(C)C)c1nc2c(F)cc(F)cc2s1.Cl  -10.1%
24. COc1ccc2cc(C(c3nnnn3CC3CCCO3)N3CCOCC3)c(=O)[nH]c2c1 (centres unmarked)  -8.78%
25. CCOC(=O)C1=C(SCC)c2cc3c(n2C1=O)CCCC3  -7.28%
26. CCCn1cc(C(CC(=O)O)C(=O)O)c2ccccc21 (centres unmarked)  -7.14%
27. Cc1sc(NC(=O)c2ccc(=O)n(C)n2)nc1-c1ccccc1  -5.43%
28. CCCCn1c(N)c(N(CCOC)C(=O)c2cccc(-n3cnnn3)c2)c(=O)[nH]c1=O  -4.49%
29. COc1cc(NS(=O)(=O)c2ccc(N/C=C\C(=O)c3ccc(F)cc3)cc2)nc(OC)n1  -4.14%
30. CC(=O)C1=C(C)NC2(O)c3ccccc3C(=O)C12O (centres unmarked)  -4%
31. COc1ccc(N2C3=[N+](CCCC3)CC2(C)O)cc1.[Br-] (centres unmarked)  -3.94%
32. O=C(CNC(=O)OCc1ccccc1)NC1CCCCCCC1  -2.67%
33. CCC1CCCCN1C(=O)CN1C(=O)c2ccccc2S1(=O)=O (centres unmarked)  -2.42%
34. COc1ccc(NS(=O)(=O)c2ccc(OC)c(NC(=O)CNC(=O)c3ccc(OC)cc3)c2)cc1  -2.19%
35. CC1CCCN(S(=O)(=O)c2ccc(NC(=O)C3CC(=O)N(C(C)(C)C)C3)cc2)C1 (centres unmarked)  -1.85%
36. O=C(/C=C/c1ccccc1)NNc1ccc(Cl)cc1  -0.505%
37. COc1ccc2c(c1)c1ncn(CC3CCCO3)c(=O)c1n2C (centres unmarked)  -0.385%
38. Cc1cccc(N2CC(C(=O)Nc3nnc(SCCN4CCOCC4)s3)CC2=O)c1 (centres unmarked)  0.559%
39. O=C(c1cccc(C(=O)N2CCN(c3ncccn3)CC2)c1)N1CCN(c2ncccn2)CC1  0.889%
40. COc1ccc(-c2cn(CCc3c[nH]c4ccccc34)nn2)cc1  1.23%
41. Oc1ccc2ccccc2c1C=NCc1ccccc1  2.02%
42. COc1ccccc1N1CCN(C(=O)c2c(-c3c(Cl)cccc3Cl)noc2C)CC1  2.17%
43. O=C(Nc1ccc(S(=O)(=O)Nc2ncccn2)cc1)c1ccc(Br)s1  2.29%
44. COc1cccc(-c2ccc(NC(=O)C3CCCN(Cc4ccc(CO)o4)C3)cc2)c1 (centres unmarked)  2.83%
45. CCCCNC(=O)/C(=C/c1ccccc1)NC(C)=O  2.85%
46. CCC(SC1=NCCS1)C(=O)Nc1nnc(-c2ccccc2OC)s1 (centres unmarked)  4.08%
47. COc1ccc(OC(=O)NCCc2ccccc2)cc1  4.1%
48. COCC1CCCN(C(=O)c2ccc(OC3CCN(Cc4ccccn4)CC3)cc2)C1 (centres unmarked)  5.48%
49. Cc1c(CCOC(=O)c2cc([N+](=O)[O-])cc([N+](=O)[O-])c2)sc[n+]1CC(=O)c1ccccc1.[Cl-]  5.96%
50. O=C1Nc2ccccc2N(O)N1c1cc(-c2ccccc2)[nH]n1  6.76%
51. COc1ccc(NC(=S)Nc2cc(C)[nH]n2)cc1Cl  7.38%
52. N/C(COc1ncn(-c2ccccc2)n1)=N\S(=O)(=O)c1ccccc1  7.7%
53. O=C(Cn1c(-c2cncs2)nc2ccccc21)NCCc1ccccc1  7.71%
54. CC1(C)OC(=O)N(CCC(=O)Nc2cccc(F)c2)C1(C)O (centres unmarked)  7.85%
55. CCCc1cc(N2CCCC2)n2nc(C)c(-c3ccccc3)c2n1  8.36%
56. S=c1nc(COc2ccccc2)[nH]c2ccccc12  8.97%
57. COc1ccc(NC(=O)CSc2ccc(C)cc2)cc1  9.62%
58. Cc1cccc(CC(=O)NC2CCS(=O)(=O)C2)c1 (centres unmarked)  9.85%
59. COc1ccc(C(CC(=O)O)N2C(=O)CCC2=O)cc1 (centres unmarked)  10.1%
60. COc1ccc(NC(=O)c2sc3nc(N4CCCC4)c4c(c3c2N)CC(C)(C)OC4)cc1  10.3%
61. CCCc1nnc(NC(=O)CCC(=O)NCc2ccc(OC)cc2)s1  10.4%
62. Cc1cc(SCc2ccc(Cl)cc2)nc(=O)[nH]1  10.7%
63. Cc1cc(-c2nnc(SCC(=O)Nc3ccccn3)o2)no1  11.3%
64. CCCCCC(=O)N1CC2(CC(c3cccc(NC(=O)CC(c4ccccc4)c4ccccc4)c3)=NO2)C[C@@H]1C(N)=O (some centres unmarked)  11.4%
65. COc1ccc(C(=O)NCc2cccs2)cc1S(=O)(=O)N1CCOCC1  12.5%
66. COc1ccc(-c2cc(C(=O)Nc3cc(Br)ccc3O)no2)cc1  12.6%
67. Cc1cccc(Nc2nc3c(S(=O)(=O)c4ccccc4)nnn3c3ccccc23)c1C  12.6%
68. O=C(Nc1ccc(-n2ccc(C(F)(F)F)n2)cc1)c1cccs1  13.4%
69. COc1ccc(/C(=N\O)c2nccc3cc(OC)c(OC)cc23)cc1OC  13.4%
70. CCOc1ccccc1C1C(C#N)=C(N)SC(N)=C1C#N  13.5%
71. Cc1cnc2c(c1)C(=O)c1ccccc1-2  13.6%
72. COc1ccc(OC)c(C2=NO[C@@](CC(=O)O)(C(=O)Nc3ccc4c(c3)OCCO4)C2)c1  13.8%
73. COc1ccc(NC(=O)N(CCc2ccccc2)Cc2cc3c(C)cc(C)cc3[nH]c2=O)cc1  14%
74. CC(=O)Nc1ccc2c(c1)nc(CCNC(=O)c1ccco1)n2C  14%
75. Nc1nnnn1/N=C/c1ccc(O)cc1  14.7%
76. CCOC(=O)c1[nH]cnc1C(=O)Nc1cccc(Cl)c1  15.9%
77. Cc1ccc(NC(=O)CCS(=O)(=O)c2ccc3c(c2)NC(=O)C(C)S3)cc1Cl (centres unmarked)  17.3%
78. CC(C)[N+](C)(C)CC#CC(O)(c1ccccc1)c1ccccc1.[Br-]  17.4%
79. CN1C=CC(=CC=C2C=CC(=O)C=C2)C=C1  17.9%
80. Cc1ccc(CNC(=O)CC2Sc3ccccc3NC2=O)cc1 (centres unmarked)  19.3%
81. Cc1nc(NCc2ccccc2)c2cc[nH]c2n1  21%
82. CCn1c(CCCCc2n[nH]c(=S)n2CC)n[nH]c1=S  21.6%
83. Cc1ccc(NC(=O)c2cnccn2)cc1C  21.9%
84. O=C(O)C(Cc1c[nH]c2ccccc12)NS(=O)(=O)c1ccc(Cl)cc1 (centres unmarked)  22.8%
85. CC(=O)Nc1cccc(Nc2nc(-c3ccccc3)nc3ccccc23)c1  28.2%
86. COc1cc(/C=N/NC(=O)c2ccc(NC(=O)C3CCCCC3)cc2)ccc1O  28.6%
